# According to ChEMBL document CHEMBL4888484, “Replenishing the malaria drug discovery pipeline: Screening and hit evaluation of the MMV Hit Generation Library 1 (HGL1) against asexual blood stage Plasmodium falciparum ,using a nano luciferase reporter read-out” (2022):
# Screen size: about 4,800 compounds; about 420 (8.8%) showed an effect of 50% or more. The list shows a part of the results.
# System: Plasmodium falciparum
# Test: Confirmatory screen in NF54 nanoGlo assay, in single point, at 2uM, 72h
# Assay type: functional, Erythrocyte
# Conditions: timepoint 72 hour
row,Compound,% Inhibition [%]
1,CCc1c(C)nn(-c2nncn2N)c1C,-1
2,CCOC(=O)c1cn([C@H]2CC(=O)N(c3ccccc3)C2=O)nn1,6
3,COc1ccccc1N(CC(=O)NCCN1CCOCC1)S(=O)(=O)c1ccc(C)cc1,-1
4,CN(C)c1cccc(C(=O)N2CCN(c3ncc(F)cn3)C(=O)C2)c1,-2
5,Cc1ccc(NC(=O)c2c(Cl)cccc2Cl)c2c1CC(C)(C)O2,-8
6,CN(C(=O)C1CC=CC1)c1ccc(NC(=O)C2CC=CC2)cc1Cl,-11
7,CCc1onc(C)c1NCc1cnc(C(C)(C)C)s1,-5
8,O=C(CCc1nc(CN2CCN(S(=O)(=O)c3ccc(F)cc3)CC2)no1)N1CCCC1,-4
9,C#C[C@H](C)OC(=O)c1cccc(Nc2cnccn2)c1,4
10,CCc1nc2c(C(=O)N3CCOc4c(C)cc(C)cc43)ccnc2[nH]1,72
11,CNC(=O)c1cc(Br)cnc1NC,3
12,O=C(NCCc1cnc2c(Cl)cnn2c1)[C@@H]1CC=CCC1,3
13,CC1CCCCC1OCCN1CCOCC1C(N)=O (stereo not given),1
14,CC(C)N(C(=O)c1cc(O)nc2ccccc12)C1CC1,-2
15,COc1ccc(C(=O)c2c[nH]c(C(=O)NC[C@H]3CCCO3)c2)cc1,2
16,O=C(CC(O)c1cccc(F)c1)NCCC1CCCCO1 (stereo not given),-1
17,Cc1ccc(C(=O)c2ccc(NC(=O)c3ncn(-c4ccc(Cl)cc4)n3)cc2)cc1,-6
18,Cc1cnccc1NCCNC1CCN(c2ccc3c(c2)CCC3)CC1,72
19,CC[C@@](C)(CCO)NCc1nccn1C,1
20,Cc1nc(C2CC2)nc(N2CCN(C(=O)N(C)C)CC2)c1Cc1ccccc1F,-8
21,CCOCC(=O)Nc1ccc(OC(F)(F)F)cc1,-17
22,CC(C)c1ccc(N2C(=O)[C@H](CC(=O)N3CCN(C)CC3)N=C2O)cc1,-2
23,O=C(N[C@H]1CCN(CC2CCCC2)C1)c1nccc2cccnc12,-5
24,Cc1cc(C)cc(CN2CCCN(c3ccc(C)cc3NC(=O)Cc3ccc(F)cc3)C2=O)c1,11
25,COC(=O)CNCc1ccccc1Cl,-1
26,CC(C)n1cc(S(=O)(=O)Nc2cc(F)ccc2Cl)c2cccnc21,13
27,Cc1nc(C(=O)NC[C@H]2CN(c3nncs3)CCO2)c(C)s1,-9

row,Compound,% Inhibition [%]
1,O=C(CN1CCN(Cc2ccc(F)cc2)C1=O)NC1CCCCCCC1,4
2,O=c1[nH]c2ccsc2c(=O)n1CCc1ccccc1,-16
3,NCc1ccc(O)c(Br)c1,2
4,Cc1nn(C)cc1C1C(C(=O)Nc2ccccc2)C(=O)CC(C)(O)C1C(=O)Nc1ccccc1 (stereo not given),-4
5,CC1(C)CC2=CC3(C)CC(C)(C)CC4(C3)C2=C(C1)N(c1ccccc1)C(=O)N4C(=O)c1ccccc1 (stereo not given),-15
6,COc1ccc(-c2cc3c(N4CCN(Cc5ccc6c(c5)OCO6)CC4)nccn3n2)cc1OC,-2
7,O=C1C2C3C=CC(C3=C(c3ccccc3)c3ccccc3)C2C(=O)N1CCO (stereo not given),-5
8,NC(=O)c1ccc(C(F)(F)F)n(C[C@H](O)c2cc(Cl)ccc2Cl)c1=O,63
9,Cc1nnc(COC(=O)c2cc3ccc(C(C)(C)C)cc3[nH]2)o1,3
10,C[C@H](Oc1ccc(F)cc1)C(=O)N1CCC(c2nc3cc(Cl)ccc3s2)CC1,-4
11,CC(C)C(CNCc1nnn(C)n1)C(C)C,-4
12,Cc1cc(Cn2c(=O)n(Cc3ccccc3)c3ccncc32)on1,-3
13,CC(O)CC(C)(C)CNC1CCCc2occc21 (stereo not given),-12
14,COc1ccccc1-n1cnc2cc(C(=O)N3CCCC3)ccc2c1=O,-4
15,CC(C)(C)NC(=O)c1ncc(Br)cc1Br,-2
16,O=c1[nH]c(N2CCCC2)nc2ccccc12,-4
17,Cc1ccc(Oc2cc(C#N)c(C#N)cc2N2CCOCC2)cc1C,-6
18,CC[n+]1ccc(-c2ncc(-c3ccc(C(C)(C)C)cc3)o2)cc1,63
19,C[C@H]1Cc2cc(C(=O)NCc3nc(C(F)(F)F)n[nH]3)ccc2O1,39
20,CN1CC(c2ccccc2Cl)C2(COc3ccccc3C2=O)C12C(=O)Nc1ccccc12 (stereo not given),3
21,Cc1nn(C)cc1-c1n[nH]cc1Br,-2
22,COc1cccc(C(=O)NCC(=O)N2CC=C(c3ccccc3)C2)c1,6
23,CC(C)(C)NC(=O)CCc1ccccc1,-7
24,Cc1c[nH]c(=O)n1-c1ccc(C(=O)NCCc2cc(F)cc(F)c2)cc1,-1
25,CCN(CC)CCN(C(=O)C1CCN(S(=O)(=O)c2ccc(Cl)cc2)CC1)c1nc2c(C)ccc(Cl)c2s1,24
26,Cc1ccc(-n2c(=O)c3ccccc3n(CC(=O)NCc3cccnc3)c2=O)cc1Cl,-9
27,O=C(Cn1nc(C2CC2)nc1C1CC1)N1CCOCC1,9

row,Compound,% Inhibition [%]
1,Cc1c(NC(=O)c2ccc(-c3cccc(F)c3)o2)cccc1-c1nc2ncccc2o1,-8
2,Cc1ccc(NC(=O)N2CCC(C(NC(=O)c3ccccc3)C(=O)N3CCCCC3C)CC2)cc1 (stereo not given),-4
3,Cc1ccc(CN2CCS(=O)(=O)CC2)o1,-11
4,Nc1ncc(C(=O)N2CCC3(CCCCCC3)C2)s1,98
5,Cc1cc(N2CCC(O)CC2)nc(N2CCC(O)CC2)c1C#N,-4
6,C[C@@H](N)C(=O)N1CCc2cc(-c3ccccc3)ccc21,5
7,CC1CN(CC(=O)NCCC#N)C(C)CO1 (stereo not given),4
8,CCN1CCC2CCC(C1)N2C(=O)Nc1ccc(OC2CCC2)c(F)c1 (stereo not given),-5
9,Cc1noc(-c2cc(=O)[nH]c3ccccc23)n1,1
10,COc1ccccc1[C@@H]1CC(c2cccn2C)=NN1C(=O)CN(CCN1CCOCC1)C(C)=O,-1
11,O=C(Nc1ccc(N2CCC(Cc3ccccc3)CC2)cc1C(=O)O)c1ccccc1F,-21
12,Cc1nnc(NC(c2cnc3ccccc3c2)[C@H]2C[C@@H](O)C2)s1 (stereo not given in full),35
13,COc1ccc(CCc2nc(NC(=O)c3nc(C)sc3C)n[nH]2)cc1OC,65
14,COc1ccc(C(=O)N(CCO)CCN2CCOCC2)c(OC2CCCC2)c1,3
15,CCOC(=O)c1sc(NC)nc1C(F)(F)F,-19
16,Cc1nnc2ccc(S(=O)(=O)N(Cc3ccc(F)cc3)c3cccc(Cl)c3)cn12,3
17,Cc1ccc(Cl)cc1N1CCN(C(=O)c2ccc3noc(-c4ccc(F)cc4)c3c2)CC1,-19
18,COc1cccc(NC(=O)N2CC(O)CC2C2CCCCC2)c1 (stereo not given),-3
19,CN(C)c1ccc(CNC2CCCCCC2)cc1,-15
20,Cc1cc(C(=O)NC(C2CC2)C2CC2)c(C)o1,-2
21,Cc1cccc(CC(=O)N[C@@H](C)CCC(=O)O)c1,4
22,CCOC(=O)C1CCN(c2cc3c(cc2NC(=O)c2cccc(C)c2)n(C)c(=O)n3C)CC1,2
23,CN(C(=O)Cn1c(=O)n(-c2cc(F)cc(F)c2)c(=O)c2sccc21)c1ccccc1,-1
24,Cc1nc(N2CCC(c3nc(-c4ccccc4)no3)CC2)c2c(C)noc2n1,54
25,NC(=O)[C@H]1CCCN(c2ccnc(C(=O)NCc3ccccc3)c2)C1,3
26,Oc1cc(CC[C@H]2CCCCN2)cc(-c2cnc3ccccc3n2)c1,73
27,N#Cc1cccc(-c2c[nH]c(CNc3nc4cc(C(F)(F)F)ccc4s3)n2)c1,0

row,Compound,% Inhibition [%]
1,O=C(Cn1c(=O)n(-c2cc(F)cc(F)c2)c(=O)c2sccc21)NCc1ccc2c(c1)OCO2,-9
2,COc1ccc(S(=O)(=O)N2C[C@@H]3CCCN3c3cc(C(F)(F)F)ccc32)cc1,3
3,O=S(=O)(Cc1ccccc1)N1CCN(C2CCCCCC2)CC1,-5
4,CCC1C(=O)CC(c2ccco2)NC1c1ccco1 (stereo not given),-3
5,Cc1ccc(NC(=O)Nc2cc(C)ccc2N2CCCN(Cc3ccc(F)cc3)C2=O)cc1,34
6,Cc1ccc(S(=O)(=O)CC(=O)NC(C)(C)C)cc1,0
7,C[C@H]1CCN(c2ncc(Cl)cc2Cl)CCS1(=O)=O,-9
8,O=C1C2C(Cc3ccccc3)NC3(C(=O)Nc4ccccc43)C2C(=O)N1c1cccc(C(F)(F)F)c1 (stereo not given),4
9,Cc1ccccc1CNC1C(=O)NCCC1C (stereo not given),-6
10,COc1ccc(CCc2nnc(NC(=O)Cc3c(C)noc3C)[nH]2)cc1OC,15
11,Cc1c(F)cccc1NC(=O)N1CCN(C2=CC3=N[C@@H](C)CN3C=N2)CC1,44
12,Cc1cnc(C2CCN(C(=O)[C@@H]3CNC(=O)O3)CC2)s1,-2
13,CCCN(CC(=O)O)S(=O)(=O)c1cccc(C)c1Br,-7
14,COC(C)[C@H](C)NCC(C)c1ccccc1 (stereo not given in full),-10
15,Cc1c(Cl)cccc1S(=O)(=O)N1CCN(c2cccnc2)C(=O)C1,2
16,COCc1cc(=O)n(CC(=O)Nc2cccc(C)c2C)c(N2CCOCC2)n1,5
17,CC(C)c1ccc(-c2nc(CN3CCCCC3)cc(CN3CCCCC3)c2O)cc1,96
18,CC(=O)Nc1cc2c(cc1NC(C)=O)N(C(C)=O)CC2,-15
19,CC(=O)Nc1ccccc1CC(c1c[nH]c2ccccc12)c1c[nH]c2ccccc12,0
20,CCN(C)[C@H]1CCN(c2cc(C(F)(F)F)ccn2)C1,-17
21,CCN(C(=O)Cn1cc(-c2ccccc2)c2ncn(CC)c(=O)c21)c1ccccc1,75
22,CCCN1CC(=O)N(c2ccc(C)cc2)[C@@H]2CS(=O)(=O)C[C@@H]21,4
23,Cc1nc2cc(NC(=O)[C@@]3(C)CCCN(C(=O)c4ccccc4)C3)ccc2o1,57
24,O=C(Cc1ccc(C(=O)Nc2nc(-c3ccccc3)cs2)cc1)c1ccccc1,10
